# Laboratory results reported in the supplement of paper PMC8728848.
# The list shows a part of the results.
# Tests used:
# Experiment in all cases: glycan array binding signal (z-score within array); higher = stronger binding
# Conditions in all cases: glycan notation: IUPAC condensed, linker removed
# [1] = target: Neu5Ac(a2-8)Neu5Ac
# Procedure, shortened: (§1)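 The binding signal is a Z-score computed within each array and averaged over linkers. Arrays of the same protein sequence at different concentrations or buffers were also averaged together. Data originate from 3228 arrays in the Consortium for Functional Glycomics database, kept only where the protein sequence was available.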
# [2] = target: Neu5Ac(a2-8)Neu5Ac(a2-3)Gal(b1-3)GalNAc(b1-4)[Neu5Ac(a2-3)]Gal(b1-4)Glc
# Procedure, shortened: as §1
# [3] = target: Neu5Ac(a2-8)Neu5Ac(a2-3)Gal(b1-3)GalNAc(b1-4)[Neu5Ac(a2-8)Neu5Ac(a2-3)]Gal(b1-4)Glc
# Procedure, shortened: as §1
# [4] = target: Neu5Ac(a2-8)Neu5Ac(a2-3)Gal(b1-4)Glc
# Procedure, shortened: as §1
# [5] = target: Neu5Ac(a2-8)Neu5Ac(a2-3)Gal(b1-4)GlcNAc
# Procedure, shortened: as §1
# [6] = target: Neu5Ac(a2-8)Neu5Ac(a2-3)[Gal(b1-3)GalNAc(b1-4)]Gal(b1-4)Glc
# Procedure, shortened: as §1
# [7] = target: Neu5Ac(a2-8)Neu5Ac(a2-3)[GalNAc(b1-4)]Gal(b1-4)Glc
# Procedure, shortened: as §1
# [8] = target: Neu5Ac(a2-8)Neu5Ac(a2-8)Neu5Ac
# Procedure, shortened: as §1
# [9] = target: Neu5Ac(a2-8)Neu5Ac(a2-8)Neu5Ac(a2-3)Gal(b1-4)Glc
# Procedure, shortened: as §1
# [10] = target: Neu5Ac(a2-8)Neu5Ac(a2-8)Neu5Ac(a2-3)[Gal(b1-3)GalNAc(b1-4)]Gal(b1-4)Glc
# Procedure, shortened: as §1
# [11] = target: Neu5Ac(a2-8)Neu5Ac(a2-8)Neu5Ac(a2-3)[GalNAc(b1-4)]Gal(b1-4)Glc
# Procedure, shortened: as §1
# [12] = target: Neu5Ac(a2-8)Neu5Ac(a2-8)Neu5Ac(a2-8)Neu5Ac(a2-3)[GalNAc(b1-4)]Gal(b1-4)Glc
# Procedure, shortened: as §1
# [13] = target: Neu5Ac(a2-8)Neu5Gc(a2-3)Gal(b1-4)GlcNAc
# Procedure, shortened: as §1
# [14] = target: Neu5Ac(b2-6)Gal(b1-4)GlcNAc
# Procedure, shortened: as §1
# [15] = target: Neu5Ac(b2-6)GalNAc
# Procedure, shortened: as §1
# [16] = target: Neu5Ac9Ac(a2-3)Gal(b1-3)GlcNAc
# Procedure, shortened: as §1
# [17] = target: Neu5Ac9Ac(a2-3)Gal(b1-4)GlcNAc
# Procedure, shortened: as §1
# [18] = target: Neu5Ac9Ac(a2-6)Gal(b1-4)GlcNAc
# Procedure, shortened: as §1
# [19] = target: Neu5Gc(a2-3)Gal(b1-3)GlcNAc
# Procedure, shortened: as §1
# [20] = target: Neu5Gc(a2-3)Gal(b1-3)[Fuc(a1-4)]GlcNAc
# Procedure, shortened: as §1
# [21] = target: Neu5Gc(a2-3)Gal(b1-4)Glc
# Procedure, shortened: as §1
# [22] = target: Neu5Gc(a2-3)Gal(b1-4)GlcNAc
# Procedure, shortened: as §1
# [23] = target: Neu5Gc(a2-3)Gal(b1-4)GlcNAc(b1-3)Gal(b1-4)GlcNAc(b1-2)Man(a1-3)[Neu5Gc(a2-3)Gal(b1-4)GlcNAc(b1-3)Gal(b1-4)GlcNAc(b1-2)Man(a1-6)]Man(b1-4)GlcNAc(b1-4)GlcNAc
# Procedure, shortened: as §1
# [24] = target: Neu5Gc(a2-3)Gal(b1-4)[Fuc(a1-3)]GlcNAc
# Procedure, shortened: as §1
# [25] = target: Neu5Gc(a2-6)Gal(b1-4)GlcNAc
# Procedure, shortened: as §1
# [26] = target: Neu5Gc(a2-6)GalNAc
# Procedure, shortened: as §1
# [27] = target: Neu5Gc(a2-8)Neu5Ac(a2-3)Gal(b1-4)GlcNAc
# Procedure, shortened: as §1
# [28] = target: Neu5Gc(a2-8)Neu5Gc(a2-3)Gal(b1-4)GlcNAc
# Procedure, shortened: as §1
# [29] = target: Neu5Gc(a2-8)Neu5Gc(a2-3)Gal(b1-4)GlcNAc(b1-3)Gal(b1-4)GlcNAc
# Procedure, shortened: as §1
# [30] = target: Neu5Gc(a2-8)Neu5Gc(a2-6)Gal(b1-4)GlcNAc
# Procedure, shortened: as §1
# [31] = target: Neu5Gc(b2-6)Gal(b1-4)GlcNAc
# Procedure, shortened: as §1
binder,measurement,setting,value
B160 (Bifidobacterium sp) (protein) MVSHNKRIVAALAAVAAMGIGLAGCGGSDTAGDTKSGSDGGVVNITYMHRLPDSEGMTLVNDIVAKWNKEHPNIQVKATKFDGNAADMIKKLETDVKAGNAPDLAQVGYAEVPEVFTKGLLQDVTDEAAKYKDDFASGPFALMQVDGKTYGLPQDTGPLTYFYNAAEFEKLGITVPKTADELIETAKKTAAQGKYIMTFTPDEAMMMMSGQAGASGPWYKVDGNSWVVNTQTKGSKAVADVYQQLIDNKAALTNPRWDASFDNSIQSGQLIGTVAAAWEAPLFIDSAGGTGAGEWKVTQLGDWFGNGTKTGANGGSGVAVLKGSKHPAEAMEFLDWFNTQVDDLVSQGLVVAATTADAKTPQKWSDYFSGQDVMAEFKTANDNMGDFTYMPGFSAVGAAMKQTAAKAADGSAKVSDVFDTAQKTSVDTLKNLGLSVKE,glycan array binding signal (z-score),[1],-0.174
same,glycan array binding signal (z-score),[2],-0.172
same,glycan array binding signal (z-score),[3],-0.133
same,glycan array binding signal (z-score),[4],-0.183
same,glycan array binding signal (z-score),[5],-0.182
same,glycan array binding signal (z-score),[6],-0.149
same,glycan array binding signal (z-score),[7],-0.159
same,glycan array binding signal (z-score),[8],-0.167
same,glycan array binding signal (z-score),[9],-0.164
same,glycan array binding signal (z-score),[10],-0.173
same,glycan array binding signal (z-score),[11],-0.183
same,glycan array binding signal (z-score),[12],-0.144
same,glycan array binding signal (z-score),[13],-0.179
same,glycan array binding signal (z-score),[14],-0.186
same,glycan array binding signal (z-score),[15],-0.196
same,glycan array binding signal (z-score),[16],-0.18
same,glycan array binding signal (z-score),[17],-0.176
same,glycan array binding signal (z-score),[18],-0.181
same,glycan array binding signal (z-score),[19],-0.189
same,glycan array binding signal (z-score),[20],-0.124
same,glycan array binding signal (z-score),[21],-0.158
same,glycan array binding signal (z-score),[22],-0.174
same,glycan array binding signal (z-score),[23],-0.16
same,glycan array binding signal (z-score),[24],-0.174
same,glycan array binding signal (z-score),[25],-0.165
same,glycan array binding signal (z-score),[26],-0.16
same,glycan array binding signal (z-score),[27],-0.171
same,glycan array binding signal (z-score),[28],-0.208
same,glycan array binding signal (z-score),[29],-0.175
same,glycan array binding signal (z-score),[30],-0.167
same,glycan array binding signal (z-score),[31],-0.161
